In PubChem BioAssay AID1508623 (National Center for Advancing Translational Sciences (NCATS), 2021):
The whole screen tested about 48,000 compounds, of which about 450 (0.94%) were called active. Another 19% or so got no clear call; they are omitted. Calls come from the whole dose curve; as a rule, active = well fitted inhibition curve with a large enough effect; inconclusive = small, poorly fitted or top-dose-only effect; inactive = no such curve, though single readings can be large or run the other way. The list shows a part of the results.

Experiment: Primary qHTS for Identification of Small Molecule Inhibitors of Huntingtin Promoter Activity; note: nearly all actives have a fitted effect of over 50% in size
Conditions: HEK293 HTT promoter firefly luciferase reporter (activity 0% = vehicle and -100% = no light), 24 h; series mostly up to 57.5 µM; activity change, negative = inhibition: at the top concentration
Procedure, shortened: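 HEK293 luciferase promoter-reporter cells (2,500/well) plated 24 h, then compounds added at up to 57.5 uM final for 24 h at 37 °C. Firefly luminescence by Dual-Glo, normalized to vehicle (0%) and zero RLU (-100%).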
Potency is the fitted concentration of half-maximal effect.

SMILES | activity change, negative = inhibition | Potency
Cc1ccc2c(=O)cc(C(=O)Nc3ccc(S(=O)(=O)N4CCCCCC4)cc3)oc2c1 | inactive: 7.31% | 
Cc1ccc(Cl)cc1N1CCN(C(=O)c2cc(S(=O)(=O)N3CCCC3)c[nH]2)CC1 | inactive: -22.1% | 
CCOC(=O)CNC(c1ccccc1)c1cc(Br)ccc1NC(=O)c1cccc(Cl)c1 (stereo unspecified) | inactive: 0.125% | 
CCc1nnc(SCC(=O)N(CC)c2ccccc2)c2cc3oc(C)cc3n12 | inactive: 0.143% | 
CC(=O)N1CCCc2cc(S(=O)(=O)N3CCC(C(=O)NCc4ccccc4)CC3)ccc21 | inactive: -18.6% | 
CCN(Cc1ccccc1)C(=O)Cn1c(=O)n(-c2ccc(Cl)cc2)c(=O)c2c(C)c(C)sc21 | inactive: -5.3% | 
Cc1ccc(CN2CCSc3ccc(C(=O)Nc4ccc(C)cc4)cc32)cc1 | inactive: 8.22% | 
CCCCN1CCC(CNC(=O)c2c3n(c4ccccc24)CCCO3)CC1 | inactive: -30.8% | 
Cc1ccc(Cn2c(=O)n(Cc3ccco3)c(=O)c3oc4ccccc4c32)cc1 | inactive: -4.79% | 
CCOc1ccc(OCC)c(NC(=O)c2cnc(SC)nc2-c2ccccc2)c1 | inactive: -21.8% | 
C[C@]12CC[C@H]3[C@@H](CCC4=CC(=O)CC[C@@]43C)[C@@H]1CC[C@@H]2C(=O)CO | inactive: -12.2% | 
Cc1ccc(C)c(NC(=O)CSc2nc3c([nH]c4ccccc43)c(=O)n2-c2ccc(F)cc2)c1 | inactive: -8.05% | 
Cc1ccc(C)c(Cn2c(=O)n(-c3ccc(Cl)cc3)c(=O)c3c(C)c(C)sc32)c1 | inactive: 0.521% | 
COc1ccc(CC(=O)NCC(c2ccc(Cl)cc2)N2CCOCC2)cc1 (stereo unspecified) | inactive: -9.41% | 
Cc1ccc(S(=O)(=O)c2nnn3c2nc(NC2CCCCC2)c2sccc23)cc1 | inactive: -7.4% | 
CN(C)S(=O)(=O)c1ccc2c(c1)nnn2CCNC(=O)Nc1ccc(Cl)cc1 | inactive: -14% | 
Cc1ccccc1OCc1nc2ccccc2n1Cc1ccccc1Cl | inactive: -24.1% | 
CC(=O)c1ccc(NC(=O)CSc2cn(CC(=O)N(C(C)C)C(C)C)c3ccccc23)cc1 | inactive: -17.7% | 
CCCCN(CC)C(=O)CCNS(=O)(=O)c1ccc2c(c1)c(=O)n(C)c(=O)n2C | inactive: -7.81% | 
Cc1cccc(Nc2ccncc2S(=O)(=O)NC(=O)NC(C)C)c1 | inactive | 
CCCNC(=O)C1Cc2cc(S(=O)(=O)N3CCCCCC3)ccc2N1C(C)=O (stereo unspecified) | inactive: -3.75% | 
CCCn1cnc2cc(NCc3ccccc3OCC)ccc21 | inactive: -9.38% | 
COC(=O)c1ccc(C(=O)OC)c(NC(=O)c2cc3nc(-c4ccc(C)cc4)cc(C(F)(F)F)n3n2)c1 | inactive: -11.1% [at 11.5 µM] | 
COCCCNC(=O)c1sc2nc(C)c(C(=O)Nc3ccc(C)cc3C)c(-c3ccccc3Cl)c2c1N | inactive: -22.5% | 

SMILES | activity change, negative = inhibition | Potency
CCc1ccc2oc(-c3ccc(NC(=O)c4cc5ccccc5o4)cc3)nc2c1 | inactive: 13.1% | 
CCCNC(=O)CCCN1C(=O)CCn2nc(-c3cccn3C)cc21 | inactive: 0% | 
COc1ccc(C(=O)NCc2ccc3c(c2)CCN3C(=O)c2ccccc2)cc1 | inactive: -1.62% | 
COCCNC(=O)c1nn(-c2ccc(C)cc2)c(=O)n(C)c1=O | inactive: -7.87% | 
COc1ccc(C(CNC(=O)c2oc3cc(C)c(Cl)cc3c2C)N2CCCCC2)cc1 (stereo unspecified) | inactive: -2.32% | 
COCCNC(=O)CCc1c(C)n(C)c2cc(-c3cc(OC)c(OC)c(OC)c3)nn2c1=O | inactive: -0.479% | 
CC1CCN(S(=O)(=O)c2ccc3nc(NCc4ccccc4)ccc3c2)CC1 | inactive: -1.92% | 
Cn1c(=O)c(=O)n(C)c2cc(C(=O)NCc3ccccc3Cl)ccc21 | inactive: -13.9% | 
COc1cccc(Nc2nc3ccccc3c3nncn23)c1 | inactive: -14.9% | 
Cn1c(SCc2cc(=O)c3cc(Cl)ccc3[nH]2)nnc1-c1ccccc1 | inactive: -25.1% | 
O=C(NCc1ccccc1Cl)c1c2c(nc3ccccc13)C(=O)N(C1CCCCC1)C2 | inactive: -13% | 
CCCCC(=O)Nc1ccc(OCc2cc(=O)n3c(C)csc3n2)cc1 | inactive: 5.72% | 
CCN(CC)c1ccc(C2C(C(=O)Nc3ccccc3C)=C(C)Nc3ncnn32)cc1 (stereo unspecified) | inactive: -9.11% | 
COC(=O)CCCCCn1c(-c2ccccc2)cn2c3c(=O)n(C)c(=O)n(C)c3nc12 | inactive: -2.41% | 
COc1ccc(OC)c(C(=O)CSc2ncc3c(n2)-c2ccccc2N(Cc2ccccc2C)S3(=O)=O)c1 | inactive: -6.56% | 
Cc1ccn2c(=O)cc(CSc3nnc(C)s3)nc2c1 | inactive: 28.9% | 
Cc1cc2c(cc1NC(=O)c1ccccc1Cl)n(C)c(=O)c(=O)n2C | inactive: 2.35% | 
CCN(Cc1ccccc1)Cc1c(O)ccc2c(=O)c(-c3ccc(Cl)cc3)c(C(F)(F)F)oc12 | inactive: -25.5% | 
CCN(CC)CCCNC(=O)c1cn(CC(C)C)c(=O)c2c1c1ccccc1n2C | inactive: 11.2% | 
COc1ccc(-c2nnc(SCC(=O)N3CCc4ccccc43)o2)cc1OC | inactive: -7.43% | 
Cc1ccc2nc(-c3ccsc3)c(Nc3ccc(Cl)cc3)n2c1 | inactive: -8.69% | 
Cc1cccc(-c2noc(-c3ccccc3OCC(=O)Nc3ccccc3[N+](=O)[O-])n2)c1 | inactive: -8.01% | 
Cc1ccn2cc(CNC(=O)c3cccc(C(F)(F)F)c3)nc2c1 | inactive: -21% | 
CC(=O)c1cccc(NC(=O)[C@H]2O[C@@H]3OC(C)(C)O[C@@H]3[C@H]3OC(C)(C)O[C@H]32)c1 | inactive: -9.24% | 

SMILES | activity change, negative = inhibition | Potency
CCOC(=O)c1ccc(NC(=O)C(C)Sc2nc(=O)cc(N)n2CCc2ccccc2)cc1 (stereo unspecified) | inactive: -10.8% | 
COc1ccc(OCC(=O)N(Cc2sccc2C)C2CCS(=O)(=O)C2)cc1 (stereo unspecified) | inactive: -5.52% | 
CCN(CC)C(=O)Cn1c(=O)n(Cc2ccc(C(=O)NCCCOC)cc2)c(=O)c2ccccc21 | inactive: -10.7% | 
O=C(Nc1ccc(F)cc1F)c1cc(S(=O)(=O)N2CCCCC2)c[nH]1 | inactive: -24.7% | 
Cc1ccc(C)c(N2C(=O)N(Cc3cccc(C(F)(F)F)c3)c3ccccc3S2(=O)=O)c1 | inactive: -30.1% | 
Cc1ccc(C)c(NC(=O)N2CCN3CCCCC3C2)c1 (stereo unspecified) | inactive: -10.8% | 
COc1ccc(C(=O)CCC(=O)Nc2ccc(F)cc2F)cc1 | inactive: -18.1% | 
COc1ccc(F)cc1S(=O)(=O)Nc1ccc2c(c1)CCCN2C(=O)c1cccs1 | inactive: -26.9% | 
CCOC(=O)CSc1nc2cc(OC)c(OC)cc2c2nc(-c3ccccc3)nn12 | inactive: 0.737% | 
COC(=O)c1sccc1S(=O)(=O)N(CC(=O)NCc1ccc(C)cc1)c1ccc(C)c(C)c1 | inactive: -1.34% | 
CCOC(=O)C1=C(C)N=C2SCCC(=O)N2C1c1ccc(OCc2ccccc2)c(OC)c1 (stereo unspecified) | inactive: -23.8% | 
CC(=O)c1c(C)oc2c1cc(NS(=O)(=O)c1c(C)cc(C)cc1C)c1ccccc12 | inactive: -9.11% | 
NS(=O)(=O)c1ccc(NC(=O)COc2ccc(S(=O)(=O)NC3CCCCC3)cc2)cc1 | inactive: -6.59% | 
COc1cccc(-n2nnc(-c3nc(-c4cccs4)no3)c2N)c1 | inactive: 106% | 
COc1ccc(NS(=O)(=O)c2ccc3[nH]c(=O)ccc3c2)cc1OC | inactive: -9.33% | 
CCOc1ccc(S(=O)(=O)Nc2cccc(OC)c2)c2cccnc12 | inactive: -18.2% | 
COc1ccc(S(=O)(=O)N(CC(=O)Nc2ccccc2Cl)Cc2ccccc2)cc1 | inactive: -34.2% | 
Cc1ccc(CCNC(=O)CN2C(=O)COc3ccc(S(=O)(=O)N4CCCCCC4)cc32)cc1 | inactive: -12.3% | 
COc1cc(OC)cc(C(=O)Nc2ccc3nc4n(c(=O)c3c2)CCCCC4)c1 | inactive: 69.2% | 
CNC(=O)c1cnc2sc(N3CCCCCC3)nn2c1=O | inactive: 68.8% | 
CCOc1ccc(N(CC)C(=O)CCc2nc(-c3ccccc3F)no2)cc1 | inactive: -17.7% | 
CCC(Sc1nnc(-c2ccc(OC)c(OC)c2)c(-c2ccc(OC)c(OC)c2)n1)C(=O)NC1CCCC1 (stereo unspecified) | inactive: -4.52% | 
COc1cccc(NC(=O)Cn2nc(C)c3c(C)n(-c4ccccc4)nc3c2=O)c1 | inactive: -25.2% | 
Cc1cccn2c(=O)cc(CSc3nnc(NC(=O)c4ccc(F)cc4)s3)nc12 | inactive: -2.37% | 

SMILES | activity change, negative = inhibition | Potency
O=C(NCCc1ccccc1)c1ccc(Cn2c(SCc3ccccc3)nc3cccnc32)cc1 | inactive: 25% | 
CCCOc1ccc(Oc2nc(NCC(C)C)nc(N(C)C)n2)nn1 | inactive: -18.4% | 
CCc1ccc(NC(=O)C(Cc2ccccc2)NS(=O)(=O)c2ccc3c(c2)c(=O)n(C)c(=O)n3C)cc1 (stereo unspecified) | inactive: -17.6% | 
Cc1nc(-n2nc(C)c(CCC(C)C)c2C)sc1C(=O)Nc1cccc(Cl)c1 | inactive: -6.07% | 
Cc1cccc(C)c1NC(=O)c1sc(-n2nc(C)c(Cc3ccc4c(c3)OCO4)c2C)nc1C | inactive: -8.17% | 
O=C1C(O)=C(O)C(=O)C(O)=C1O | inactive: -19.1% | 
Clc1ccc(NCc2nc3ccccc3n2CCOc2ccccc2)cc1 | inactive: -26.7% | 
COc1ccc(Cl)cc1NC(=O)Cn1c(=O)c2ccccc2n2nncc12 | inactive: -9.23% | 
COc1cc(CNCCSc2nnnn2C)ccc1OCc1ccc(Cl)cc1Cl | inactive: -19.2% | 
Cc1ccc(NC(=O)Cn2nc3c(cc2=O)CCCC3)cc1Cl | inactive: -0.938% | 
Cc1nccn1CC1CCc2c(c3ccccc3n2C)C1=O (stereo unspecified) | inactive | 
CC(=O)c1ccc(NC(=O)CCc2c(C)nn(-c3ccc4nnc(C)n4n3)c2C)cc1 | inactive: -4.87% | 
COc1ccc(NC(=O)C2CCC(CNS(=O)(=O)c3ccc(Br)s3)CC2)c(OC)c1 (stereo unspecified) | inactive: -13.2% | 
CC(C)CC(C(=O)NCC1CCN(Cc2ccc(F)cc2)CC1)N1Cc2ccccc2C1=O (stereo unspecified) | inactive: -4.39% | 
COc1cc(NC(=O)N2CCC(CN3CCCCCC3)CC2)cc(OC)c1OC | inactive: -14.4% | 
O=C(CSc1nc(-c2ccccc2)nc2cc(=O)[nH]n12)Nc1ccccc1 | inactive: -7.29% | 
Cc1ccccc1C(=O)N1c2ncnn2C2(CCCCC2)[C@@H]2CCCC[C@@H]21 | inactive: -17.2% | 
Cc1ccccc1Cn1c(=O)n(CCC(=O)NCc2ccco2)c(=O)c2sccc21 | inactive: -1.02% | 
COC(=O)C1=C(C)N(C(C)C)C(=O)C1(NC(=O)c1ccc(C(C)(C)C)cc1)C(F)(F)F (stereo unspecified) | inactive: -11.6% | 
CC(C)Nc1nc2c(-c3cccc(Br)c3)nnn2c2ccccc12 | inactive: 11% | 
O=C(NCCn1cc(SCc2ccc(F)cc2)c2ccccc21)c1cccs1 |  | active: 28.2 µM
CCn1cc(C(=O)N2CCN(c3cc(Cl)ccc3C)CC2)c(=O)c2cc(S(=O)(=O)N3CCCCC3)ccc21 | inactive: -26.3% [at 11.5 µM] | 
CC(=O)NC[C@H]1CN(c2ccc(N3CCOCC3)c(F)c2)C(=O)O1 | inactive: 3.92% | 
COc1ccccc1NC(=O)C1=C(C)Nc2nc(-c3ccco3)nn2C1c1ccccc1F (stereo unspecified) | inactive: -19.8% | 
